Results: PubChem BioAssay AID651820 (National Center for Advancing Translational Sciences (NCATS), 2012)
Where “and” joins values, the source holds several entries; their conditions need not be identical. Equal values may be shown once. Among all 340,000 compounds or so, about 12,000 (3.5%) were called active. Inconclusive results, whose numbers are uncertain, are shown with a selection of clear calls. Calls follow the shape of the dose curve; as a rule, active = well fitted inhibition curve with a large enough effect; inconclusive = small, poorly fitted or top-dose-only effect, or another doubt; inactive = no such curve, though single readings can be large or run the other way. Potencies of inconclusive entries are doubtful fits and often do not repeat. Where a structure was tested more than once in an assay, its records may differ in their call.
Potency is read from the fitted curve at half-maximal effect; tags tell the direction and shape of the fitted curve.

Assay: qHTS Assay for Inhibitors of Hepatitis C Virus (HCV)
Settings: Huh7.5.1 HCVcc-Cre (HCVcc is cell-culture hepatitis C virus) infection, luciferase reporter, 44 h; series mostly up to 41.8 µM
Method in brief: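 After 44 h co-culture of compound, cells and HCVcc-Cre (~0.5 moi), substrate is added for 15 min at room temperature and luciferase measured over 15 sec. Cells were seeded at 1,000/well and pre-cultured 4 h.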
For `COc1ccc(CC(=O)NCCS(=O)(=O)N2CCN(c3ccccc3)CC2)cc1OC`, the Potency was inconclusive: 22.4 µM [inhibitor, single point].
With `CC(/C=C(\NC(=O)c1ccccc1)C(=O)N=Nc1c(O)[nH]c2ccc(C)cc12)=C\c1ccccc1` the Potency was inconclusive: 8.91 µM [inhibitor, partial curve].
In the case of `O=C(CCl)Nc1cccc(-c2cnc3ccccc3n2)c1`, the Potency is reported as inconclusive: 31.6 µM [inhibitor, single point].
For `COc1ccc(NS(=O)(=O)c2ccc(OC)c3ccccc23)cn1`, the Potency was inconclusive: 31.6 µM [inhibitor, single point].
For `Cc1sc2ncnc(SCC(=O)Nc3cccc(S(N)(=O)=O)c3)c2c1C`, the Potency was inconclusive: 11.2 µM [inhibitor, partial curve].
With `CC(C)COc1ccc(CNC(=S)NCc2ccccc2)cc1` the Potency was inconclusive: 15.8 µM [inhibitor, single point].
In the case of `O=C(Nc1ccccc1Oc1ccccc1)c1cccc([N+](=O)[O-])c1`, the Potency is reported as inconclusive: 22.4 µM [inhibitor, single point].
With `O=C(c1cccn2c(=O)c3cc(Br)ccc3nc12)N1CCN(c2ccccn2)CC1` the Potency was inconclusive: 10 µM [inhibitor, single point].
For `N#Cc1c(NC(=O)CCN2C(=O)c3ccccc3C2=O)oc(-c2ccccc2)c1-c1ccccc1`, the Potency was “inactive”.
With `CCCNC(=O)c1cccc(Cn2nc(C)c(Br)c2C)c1` the Potency was inconclusive: 35.5 µM [inhibitor, partial curve, poor fit].
With `COc1ccc(-c2csc(Nc3ccc(C)cn3)n2)cc1` the Potency was inconclusive: 31.6 µM [inhibitor, single point].
In the case of `C=CCNCc1ccc(C(=O)NCCCCCCC)cc1[N+](=O)[O-]`, the Potency is reported as inconclusive: 25.1 µM [inhibitor, partial curve].
For `COc1ccc(N(C)S(=O)(=O)c2cccc(C(=O)NC3CCCCCC3)c2)cc1`, the Potency was inconclusive: 1 µM [inhibitor, full curve, poor fit].
With `CC(=O)c1c(CSc2ccccc2)oc2ccc(O)c(CN(C)C)c12` the Potency was inconclusive: 11.2 µM [inhibitor, single point].
With `CCCOc1ccc(CCC(=O)N/N=C/c2ccc([N+](=O)[O-])o2)cc1` the Potency was inconclusive: 14.1 µM [inhibitor, partial curve, poor fit].
With `Cc1cccc(Cn2c(C(C)(C)C)cc3cccnc32)c1` the Potency was inconclusive: 22.4 µM [inhibitor, single point].
With `Cc1cccc(C2=NN(c3ccccc3)[C@@H](C(=O)N3CCOC3=O)[C@@H]2c2ccc(Cl)cc2)c1` the Potency was inconclusive: 3.16 µM [inhibitor, single point].
In the case of `Cc1ccc(/C=N/n2c(-c3cccnc3)n[nH]c2=S)o1`, the Potency is reported as “inactive”.
For `CSc1ccc(C(=O)/C=C/c2ccc(N)cc2)cc1`, the Potency was “inactive”.
In the case of `O=C1CC(NCc2cccs2)C(=O)N1c1ccc(Cl)cc1` (stereo not given), the Potency is reported as “inactive”.
In the case of `Cc1cc(S(=O)(=O)N2CCCC(N(C)CCc3ccccn3)C2)c(C)cc1Cl` (stereo not given), the Potency is reported as inconclusive: 31.6 µM [inhibitor, single point].
In the case of `CCOc1cccc2sc(N(CCN(C)C)C(=O)/C=C/c3cccs3)nc12`, the Potency is reported as active: 31.6 µM.
For `COC(=O)c1c(C)oc2ccc(N(C(=O)c3ccncc3)S(=O)(=O)c3ccccc3)cc12`, the Potency was inconclusive: 31.6 µM [inhibitor, single point].
With `CCOC(=O)c1c(C)[nH]c(C)c1C(=O)CSc1nc2ccccc2c(=O)n1-c1ccc(F)cc1` the Potency was inconclusive: 31.6 µM [inhibitor, single point].
In the case of `CN(CC(=O)Nc1ccccc1Br)C(=O)c1ccccc1OCc1ccc(F)cc1`, the Potency is reported as inconclusive: 10 µM [inhibitor, partial curve].
For `COc1ccccc1NS(=O)(=O)c1cccc(C(=O)N/N=C(\C)c2ccc(-n3ccnc3)cc2)c1`, the Potency was “inactive”.
For `CC(=O)NC(=S)NNC(=O)c1ccc(Br)cc1`, the Potency was inconclusive: 31.6 µM [inhibitor, partial curve].
In the case of `Cc1nnc(SCC(=O)N2CCCC2)n(N)c1=O`, the Potency is reported as “inactive”.
For `Cc1cccc(C)c1NS(=O)(=O)c1ccc(NC(=O)c2ccc(Cl)c([N+](=O)[O-])c2)cc1`, the Potency was active: 7.08 µM.
With `Cc1cccc(NC(=S)NCCc2ccc(F)cc2)c1C` the Potency was inconclusive: 11.2 µM [inhibitor, partial curve].
With `CCN(CCNC(=O)C1CCN(S(=O)(=O)c2cccc3cccnc23)CC1)c1ccccc1` the Potency was “inactive and inconclusive: 31.6 µM [inhibitor, single point]”.
In the case of `CCN1CCN(c2cc(N3CCc4ccccc4C3)c(F)cc2[N+](=O)[O-])CC1`, the Potency is reported as active: 4.47 µM.
In the case of `Cn1ccc(C(=O)OCC(=O)Nc2cccc(Cl)c2)n1`, the Potency is reported as “inactive”.
For `Cc1c(N)cccc1[N+](=O)[O-]`, the Potency was inconclusive: 31.6 µM [inhibitor, single point].
In the case of `Cc1ccc(C)c(CSc2ccc3nnc(-c4ccccn4)n3n2)c1`, the Potency is reported as inconclusive: 7.08 µM [inhibitor, partial curve].
With `Cc1cc(C)cc(-n2ncc3c2CCCC3NC(=O)CN2CCCCC2=O)c1` (stereo not given) the Potency was “inactive”.
In the case of `Cc1ccc(S(=O)(=O)Nc2ccc3nc(N)sc3c2)cc1`, the Potency is reported as active: 12.6 µM.
In the case of `CCc1ccccc1N=C1S/C(=C/c2ccccc2OCC(=O)N2CCOCC2)C(=O)N1C`, the Potency is reported as inconclusive: 8.91 µM [inhibitor, partial curve].
In the case of `O=C(NS(=O)(=O)c1ccc(Cl)cc1)c1ccccc1`, the Potency is reported as “inactive”.
For `CC(=O)Oc1cc2c(C(=O)NCCN3CCOCC3)c(C)oc2c2ccccc12`, the Potency was active: 10 µM.
With `Cc1ccc(Nc2nc(-c3sc(NC(=O)c4ccco4)nc3C)cs2)cc1` the Potency was inconclusive: 2.82 µM [inhibitor, full curve].
For `O=C(c1ccco1)N1CCN(Cc2nc3ccc([N+](=O)[O-])cc3c(=O)n2-c2ccccc2F)CC1`, the Potency was inconclusive: 3.55 µM [inhibitor, single point].
In the case of `CC1C(c2ccccc2)N(C)C(c2ccccc2)CC1(O)c1ccc(F)cc1` (stereo not given), the Potency is reported as “inactive”.
In the case of `CCN(c1ccc2c(c1)OCO2)S(=O)(=O)c1cc(Br)cc2c1N(C(=O)C1CC1)CC2`, the Potency is reported as inconclusive: 22.4 µM [inhibitor, single point].
For `CC/S(=N\S(=O)(=O)c1ccc(C)cc1)c1ccccc1` (stereo not given), the Potency was “inactive”.
With `Cc1[nH]c(=O)[nH]c(=O)c1S(=O)(=O)N1CCC(C(=O)N2CCN(c3cccc(C(F)(F)F)c3)CC2)CC1` the Potency was inconclusive: 22.4 µM [inhibitor, single point].
In the case of `CCOC(=O)c1cnc2ccc(C)cc2c1Sc1ccc(F)cc1`, the Potency is reported as inconclusive: 10 µM [inhibitor, partial curve].
For `COc1ccc(C2=C(C=Nc3c(C)n(C)n(-c4ccccc4)c3=O)C(c3ccccc3C)c3ccccc3O2)cc1OC` (stereo not given), the Potency was inconclusive: 11.2 µM [inhibitor, partial curve].
For `CC(C)(C)[C@@H]1C=C(C(N)=O)O[C@H](OCc2ccc(CO)cc2)C1`, the Potency was inconclusive: 25.1 µM [inhibitor, partial curve].
For `COc1ccc(-c2ccccc2[C@H]2[C@@H]3C=CC[C@@H](C)[C@@H]3C(=O)N2Cc2ccccc2)cc1`, the Potency was inconclusive: 11.2 µM [inhibitor, partial curve].
With `Cc1ccc(S(=O)(=O)Cn2nnnc2CN2CCOCC2)cc1` the Potency was “inactive”.
For `Cc1cccc(NC(=O)c2cc(NC(=O)c3ccccc3)ccc2N2CCCCC2)c1`, the Potency was inconclusive: 1.41 µM [inhibitor, partial curve].
With `C[C@@]12C(=O)N(c3ccc(F)cc3)C(=O)N1[C@@H]1c3ccccc3OC[C@@H]1[C@H]2c1ccccc1` the Potency was inconclusive: 8.91 µM [inhibitor, partial curve].
With `CCOC(=O)CN1C(=O)C(O)=C(C(C)=O)C1c1ccccc1` (stereo not given) the Potency was inconclusive: 0.355 µM [inhibitor, full curve, poor fit].
With `O=C(/C(=N/N=C/c1ccc(O)c(O)c1)c1ccccc1)c1ccccc1` the Potency was inconclusive: 22.4 µM [inhibitor, single point].
In the case of `CCOc1ccc(NC(=O)CCS(=O)(=O)c2ccc3c(c2)CCCN3C(C)=O)cc1`, the Potency is reported as “inactive”.
In the case of `CCN(CC)C(=O)CSC1=N/C(=C/c2ccco2)C(=O)N1c1ccc(OC)c(Cl)c1`, the Potency is reported as inconclusive: 0.501 µM [inhibitor, partial curve].
With `COc1ccc2c(c1)C(C)CC(C)(C)N2C(=O)NC1CCCCC1` (stereo not given) the Potency was inconclusive: 5.62 µM [inhibitor, single point].
For `O=C(CCCCn1c(=O)c2ccccc2n(Cc2ccc(Cl)cc2)c1=O)NCc1ccco1`, the Potency was active: 12.6 µM.
For `Cn1c2c(c(=O)n(C)c1=O)C(C(F)(F)F)(C(F)(F)F)N=C(c1ccc(Cl)cc1)N2`, the Potency was active: 1.58 µM.
With `CC(NC(=O)/C(C#N)=C/c1cn[nH]c1-c1ccccc1)c1ccccc1` (stereo not given) the Potency was inconclusive: 8.91 µM [inhibitor, partial curve].
In the case of `COc1cccc(/C=C(/C(=O)OCC(=O)NC2CCCC(C)C2C)c2ccccc2)c1` (stereo not given), the Potency is reported as inconclusive: 31.6 µM [inhibitor, single point].
In the case of `COc1ccccc1N1CCN(c2ncc(C(=O)N3CCN(c4cccc(Cl)c4)CC3)c3ccccc23)CC1`, the Potency is reported as inconclusive: 3.16 µM [inhibitor, single point].
In the case of `COc1ccc(C(=O)C2CCCN(Cc3ccc(C)s3)C2)c(OC)c1` (stereo not given), the Potency is reported as inconclusive: 10 µM [inhibitor, partial curve].
In the case of `Nc1nnc(SCCOc2ccc(Br)cc2)s1`, the Potency is reported as inconclusive: 22.4 µM [inhibitor, single point].
